In the supplement of paper PMC11417369:
± gives the standard deviation of the averaged measurements. The list shows a part of the results.

system: PfAP2-EXP AP2 domain (GST-tagged); assay: gcPBM binding intensity (ln(normalized median fluorescence intensity)); higher = stronger DNA binding
In short: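 DNA-binding domains from P. falciparum, fused to GST and produced in E. coli, were put on an Agilent 4 × 180k double-stranded probe array for 1 h in 1× PBS holding 1% milk, 0.2 mg/ml BSA, 0.5% salmon testes DNA and 0.03% Triton X-100. Probes were primer-extended, 36 bp long and drawn from intergenic genomic regions, with negative controls included. After Alexa488 anti-GST antibody detection and a 488 nm scan, binding intensity was set as the highest Masliner-normalised natural-log median intensity across replicate spots of either probe orientation.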

| Sequence | gcPBM binding intensity (ln) |
| --- | --- |
| AAAAAATTGAAGGAGTGTACATTTATACTTTATTTT [XGTACX_site8623] | 8.39 ± 0.34 |
| TTCTATAAGTATAAATGTACAAAAAAAACATCATTC [XGTACX_site5450] | 8.72 ± 0.46 |
| CTCATAATTTCTGAACGTACGTATTTCTCATTTTTA [XGTACX_site7296] | 8.83 ± 0.44 |
| CATATTCCAAGAATGTGTACATAATTTTTTTTTTTT [XGTACX_site4310] | 8.19 ± 0.32 |
| ATTTTTTTTTAATGCAAAAGGTGATGATCGGTCATA [CACACA_negctrl_site959] | 8.21 ± 0.35 |
| ATGTAAATTATTATTCTATTGTTATATACACAATAT [XGTACX_negctrl_site332] | 8.61 ± 0.34 |
| TTTTCTTGATTTTGTAGTACATTTTTACGATATTTT [XGTACX_site63] | 8.75 ± 0.42 |
| CACATACATATATACACACACAAAATAATAAAATAA [CACACA_site2308] | 8.79 ± 0.38 |
| TTTTTAAAAATAACAGAAAAGAATTACAGATTTTTT [XGTACX_negctrl_site472] | 8.34 ± 0.41 |
| AAAATTATATTTTATAGAAATTTAAATAAATATATA [GTGCAC_negctrl_site199] | 8.01 ± 0.38 |
| TTTTTTACATCCATAAAACTTTTTCTCTTTTAAAAT [CACACA_negctrl_site1745] | 8.35 ± 0.46 |
| AGAGAGAAAGGTATAACATGCGATAAATTTTAGAAG [TGCATGCA_site37] | 8.88 ± 0.45 |
| ATATAGTTCGTTTATACACACATGATAAGATATTTA [CACACA_site1947] | 8.63 ± 0.38 |
| AAATCACTTTTTAAGTGTACTTGGTCTTTCTCATTT [XGTACX_site7221] | 8.36 ± 0.35 |
| CAATTAAATATATGAACACACATGTGAACTTTCTAT [CACACA_site3977] | 8.54 ± 0.42 |
| TATTAAATTATATAGACACACATTATATATATATAT [CACACA_site4345] | 9.73 ± 0.17 |
| AAATACCTGATATATACACACTATGTTTTTCTTTTT [CACACA_site6680] | 8.72 ± 0.53 |
| AAAAAGAAATATTTATGTACATAATAATAATATTTT [XGTACX_site4693] | 8.4 ± 0.35 |
| AATATAGATACATATACACACACACCCATACATATA [CACACA_site9137] | 8.87 ± 0.52 |
| GTAACAAATAAAATAACACACATGTCGAAATGTATG [CACACA_site2971] | 8.57 ± 0.5 |
| AAGAAAAACATTACGTGTACCAAAAGGCCTGTCAAC [XGTACX_site267] | 9.01 ± 0.54 |
| AAAATGGGTTAGCACATACACACCAATATATTATAT [CACACA_site3082] | 8.53 ± 0.67 |

| Sequence | gcPBM binding intensity (ln) |
| --- | --- |
| ATAATTATATAAATATATATAATATATATATGAAAA [XGTACX_negctrl_site357] | 8.07 ± 0.48 |
| TATAGATGTATGTACATACACACATATATAAATAAA [CACACA_site1789] | 8.63 ± 0.35 |
| TGTTAATTTATATTATGTACTTATAATTATCGTTTG [XGTACX_site1032] | 8.66 ± 0.22 |
| GTTAATTGAAGATTCACACATAAATATATATATAAT [CACACA_site5482] | 8.49 ± 0.5 |
| ATTGTATGCACGTCTGCACACTTTTTTTTTTTTTTT [CACACA_site2082] | 8.72 ± 0.24 |
| TAACGCATGAATATAATATATATATATATAAAAATA [GTGCAC_negctrl_site218] | 8.43 ± 0.57 |
| ATAATTCTAAATAAATGTACACACAAAAATAAATGT [XGTACX_site3547] | 8.76 ± 0.37 |
| GTAAGATTTCTTGTTGCATGCGGTAAAAAGTAAAAT [TGCATGCA_site469] | 9.68 ± 0.28 |
| TAGATAAATGGGTATACACACATATACATAAATATA [CACACA_site375] | 8.53 ± 0.35 |
| TACACCCACCAACACACACACACACCCAAAAAAAAA [CACACA_site498] | 8.47 ± 0.38 |
| TTTATGAAACAGTGCACACATAAAAATATATACATA [CACACA_site2992] | 8.96 ± 0.13 |
| TTTATATATTTATTCACACATATAATATTCCGTCGT [CACACA_site6120] | 8.62 ± 0.53 |
| AACATACATAAACACACACACACACCCACACCCACA [CACACA_site8058] | 8.65 ± 0.65 |
| AACTTTATACTTTTTTGTACTTAACCCTTACATTTT [XGTACX_site5798] | 9.03 ± 0.55 |
| AATCTAATGTAATGCATACACACAACTATCCATCAA [CACACA_site535] | 8.57 ± 0.32 |
| TAAAATGAAGGAATATGTACATAAATAAACATATAT [XGTACX_site6266] | 8.55 ± 0.057 |
| AATATACGAAATTGTGCACACATATATTTATGTATG [CACACA_site1510] | 8.79 ± 0.099 |
| CGATATAAAGATATTAGTACATATGCATGCTTGTCT [XGTACX_site8629] | 9.03 ± 0.16 |
| CATATATGATATATTAGTACATATATATATATATAT [XGTACX_site1574] | 10.1 ± 0.29 |
| AAAAATAAAGTAAAAGCATGCTAGTATATGGAAAAT [TGCATGCA_site486] | 9.32 ± 0.45 |
| TTGAAATTAAATGACATACACACTATATTATATATT [CACACA_site3135] | 8.2 ± 0.38 |
| AGGTATATATATTTATGTACTTAAAATGAGAAAATA [XGTACX_site8337] | 8.73 ± 0.23 |

| Sequence | gcPBM binding intensity (ln) |
| --- | --- |
| CATATACGCAAACACACACACATATATATATATATA [CACACA_site501] | 10.2 ± 0.4 |
| TATAATAATATTTATTGTACAATTAGGTTAATTCAT [XGTACX_site1986] | 8.49 ± 0.33 |
| GCATTTTAATAATTATGTACATATATTATTCCTGGT [XGTACX_site3664] | 8.93 ± 0.4 |
| TTCCATCAAAAAATGGGTACACATTATAGAAATATT [XGTACX_site8482] | 8.68 ± 0.35 |
| AAAACATACAGATATACACACATATATATATATATA [CACACA_site5091] | 10 ± 0.4 |
| ATATAGATCTACACTGCACACATTTTTAACACTGCT [CACACA_site1882] | 8.78 ± 0.38 |
| ATATTTAAACGATGGTGTACATATATTACAAGTTGT [XGTACX_site1743] | 8.86 ± 0.35 |
| ACGCATGTAATTTATACACACATTCTTTTATATTTT [CACACA_site3708] | 8.7 ± 0.36 |
| TATACATATATATATACACACATATATATATATACA [CACACA_site402] | 8.38 ± 0.3 |
| AAATTATTATCGTTAATATGTATATATGTGCCAAGT [TGCATGCA_negctrl_site557] | 8.68 ± 0.45 |
| TATAATATGAACAGTACACACAAAATAAATTCGTAT [CACACA_site3586] | 8.58 ± 0.44 |
| ATTCAAAATAATAGAATTGTTAAAGTTGTAAATTGA [CACACA_negctrl_site727] | 8.26 ± 0.43 |
| TATATTTTTATATTTTGTACATATAGTAAATATAAA [XGTACX_site4768] | 8.27 ± 0.27 |
| AAAAATAAATATACATGTACTTAAAATAATCGAATA [XGTACX_site8432] | 8.72 ± 0.42 |
| CTCAAACAATATTATATAATAAAGTACATATATATT [CACACA_negctrl_site446] | 8.62 ± 0.42 |
| GAACAGAAAAAGAATAGTACATATATATATATATAT [XGTACX_site3700] | 10 ± 0.45 |
| ACGTATCAAAAAATTTGTACATATATATATATATAT [XGTACX_site1024] | 10.1 ± 0.35 |
| AAAAATATATAAAGAAAAAGAATATAATATAAAATA [GTGCAC_negctrl_site208] | 8.53 ± 0.38 |
| ATTGTAGAATTTAATAGTACTCACGAATAAAATAAA [XGTACX_site6280] | 8.69 ± 0.3 |
| GTTTATGTTAAACCATGTACTTAATATTTTATTCTT [XGTACX_site3761] | 8.64 ± 0.28 |
| AAAAAAAAAGTATTATGTACATAAAAATAAAAAAAT [XGTACX_site4166] | 8.76 ± 0.52 |
| TATGATTCATAATAGTGTACGTAAAAATTGACTAGA [XGTACX_site5376] | 9.16 ± 0.44 |

| Sequence | gcPBM binding intensity (ln) |
| --- | --- |
| TATTAAAATATGTCAGTTCTTAAAAAGTTGATGAGT [GTGCAC_negctrl_site77] | 8.28 ± 0.34 |
| AAAATGTATATATAAACATGCACACGTGGTTGTATA [TGCATGCA_site847] | 9.04 ± 0.43 |
| TATCGTTATATAATATGTACATATAAAATTTAAATT [XGTACX_site1887] | 8.8 ± 0.3 |
| TATATATTATGACCACCACACACCTATACGCATAAC [CACACA_site2447] | 8.98 ± 0.54 |
| TCTTAAATTTCTTTATGTACATAATTAATATATTTA [XGTACX_site4456] | 8.41 ± 0.2 |
| ATGATAGTATGTATGAGTACGAAAAAAAAAAATTAA [XGTACX_site32] | 8.7 ± 0.48 |
| AAATGCAAATGATGATGTACATACAAAAATTAAATT [XGTACX_site5323] | 8.91 ± 0.45 |
| ATATATATATATATTGTACACACATTTATGCATATA [CACACA_site9055] | 10 ± 0.2 |
| TGTGGGAATAACCACACACACACACCCATATATATA [CACACA_site5876] | 8.71 ± 0.44 |
| ATATATATATATATATGTACATATCACTTTAAATAT [XGTACX_site3859] | 10.1 ± 0.38 |
| TTTTCTTAAAAAATCAAACACACATATATATATACA [CACACA_site2297] | 8.55 ± 0.51 |
| TACTATAAGATATATACACACAAGAAATACAAAACG [CACACA_site6764] | 8.97 ± 0.59 |
| ATACACATTCGAAATAACAAAAAAATACATACACAT [GTGCAC_negctrl_site628] | 8.78 ± 0.58 |
| GAATATGAATATTTGCGTACTTATATAACTGTTCTA [XGTACX_site883] | 8.72 ± 0.33 |
| AAAAAAAATAATAATACACACAATATGATATGTACA [CACACA_site850] | 8.35 ± 0.45 |
| ATGATTATTTTAAAAAGTACTAATTATTATTTTTTT [XGTACX_site7242] | 8.28 ± 0.34 |
| TGCTTAATTTACGTGGGTACATACACCTCATATATT [XGTACX_site3093] | 8.89 ± 0.36 |
| TTTTTATACAATTAGACACACACAAAAAGTATATAT [CACACA_site8272] | 8.82 ± 0.45 |
| ATATATGTATATTTTTGTACGCATAAATATATTTTT [XGTACX_site827] | 8.63 ± 0.4 |
| TTAATACATATATATATATTATATATATATATATAT [TGCATGCA_negctrl_site177] | 9.6 ± 0.51 |
| TATTTTTCCATAAAAATTTATATAGAAACAAATAAT [GTGCAC_negctrl_site103] | 8.26 ± 0.33 |
| ATTATTTTAATTTTAATTTTTTTTTTTTTTTGTTTT [CACACA_negctrl_site1063] | 8.14 ± 0.45 |
